# Assay results reported in the supplement of paper PMC11417369.
# This is one part of the list.
# Tested on: PfAP2-HC AP2 domain (GST-tagged)
# Assay: gcPBM binding intensity (ln(normalized median fluorescence intensity)); higher = stronger DNA binding
# Method in brief: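 Probes on an Agilent 4 × 180k array were primer-extended, double-stranded and 36 bp long, taken from intergenic genomic regions, with negative controls added. GST-tagged P. falciparum DNA-binding domains from E. coli, about 25 μg on average, were applied to the array for 1 h in 1× PBS containing 1% milk, 0.2 mg/ml BSA, 0.5% salmon testes DNA and 0.03% Triton X-100. Binding intensity, obtained after Alexa488 anti-GST antibody detection and a 488 nm scan, is the highest Masliner-normalised natural-log median intensity across replicate spots of either probe orientation.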
row,Sequence,gcPBM binding intensity (ln)
1,TATGCTATAATACTCTGTACTTACTAATTTAATAAT [XGTACX_site5926],9.79
2,TATATATATATATGGGTGCATTTTTTTGTCCATGTA [GTGCAC_site9868],9.58
3,ATAAAATAAATGAAAAATGTAAAATGAGAAAAAAAT [CACACA_negctrl_site1026],10
4,TACATATTTTTTATATGTACATATTTTTTATGTGTA [XGTACX_site442],9.65
5,TAAACATACCTATACACACACACACGCACACGCACA [CACACA_site6372],10.6
6,ATAATATATGAGCAATGTACATATTTCTCATTGCAC [XGTACX_site2253],9.6
7,TTTCTATATTGGCATACATGCAAGAACGAAAAGATT [TGCATGCA_site117],9.55
8,TAAAAATTGCACAGAAGTACAGTATAAATATATATA [XGTACX_site3421],9.61
9,GTTCCAGGCATTCGTGCGCACAAATAGAAACAATTA [GTGCAC_site9824],9.6
10,TAAGTATACGCATACACACACACACCCAAAAAAAAA [CACACA_site425],10.4
11,CATTCAATTGAAAAATGTACAAAAATAAACATATGC [XGTACX_site1663],9.79
12,AATAGGAAGACTATTTTGTATTTGATTTTTTATTCC [GTGCAC_negctrl_site453],9.79
13,AAAAGGTATCCACATACGCACACCAAAAAAAAAAAT [CACACA_site347],9.88
14,TCTTTTTTTTTTTTTTTTTTTTTTTATTTATTCATA [CACACA_negctrl_site1827],9.5
15,ATACAACAATGTGAATTATATATGGATGGAGAATGA [GTGCAC_negctrl_site148],9.89
16,ACGTAAGCGAATAAAAGTACATATATTAAAAAAAAA [XGTACX_site4458],9.59
17,TTCTTAAGGAACGAACGTACAGAATAAAAAGTAAAA [XGTACX_site4294],9.58
18,TTGTGAAACATCAAGAAAAAGAAATAATAAAAAGAA [GTGCAC_negctrl_site38],9.6
19,GTTGAACATATATGCACACACATAAAATAAAAAAAA [CACACA_site2413],9.97
20,TTATATTAATATATATGTACATATATTTTTTTTATA [XGTACX_site6981],9.79
21,ATATATATGTTTTATAGTACACACATAAATGGACAT [XGTACX_site4538],9.82
22,CTATTATTTTTAAATTGTACTATAACAAAATGTATA [XGTACX_site3916],9.52
23,AAATAAATCTATAATACACACAAAAATATAAAATGC [CACACA_site7700],10

row,Sequence,gcPBM binding intensity (ln)
1,TTTATATTTATATAAATATAATATATATGAATTATA [XGTACX_negctrl_site466],9.03
2,TTAGATATGTGTAAGGGTACAAAATACTTTACATTT [XGTACX_site8204],9.58
3,CTTCAATATATTCTTACACACTTAAAAAAAAAAATA [CACACA_site4287],9.3
4,TTAAGAAATAACAATGCACACATTTAGGTCTTTTAT [CACACA_site3285],9.73
5,ATAACTTGTATATATACACACACACCCTTTCTTTTT [CACACA_site8600],10.4
6,TATATTATATTATACATACACACCCATATAATATGT [CACACA_site869],10.1
7,TTTTCGATGTTGGTAGGAAGTTTGGTACACGTAGTA [TGCATGCA_negctrl_site145],9.6
8,CGTATTTATAGAATTACACACCATATTGTAATTATT [CACACA_site7722],9.72
9,GTGTTTTTATTATTTTGTACACATATATTTAATATT [XGTACX_site2109],10.1
10,TTTTTTTTGTAATACGCATGCTAAAAATATTTATAA [TGCATGCA_site656],9.41
11,TTGTCCCTATAAGGGGAACACACATAAATGAATATA [CACACA_site8250],9.57
12,AAAACTATTTGTAAAAGTACATAATAAATAAATAAA [XGTACX_site7922],9.8
13,ATAATGTTTTATAATACACACATTATGTATATAAAT [CACACA_site4077],9.8
14,AAAATTCATATATACACACACGCACATATATATATA [CACACA_site90],10.8
15,GAATGTCTAATTTTGATGCACACTTTTGTGCAATTA [CACACA_site2902],9.63
16,TTATATTATTCGTGTGTGCACGATATTTCATAATTG [GTGCAC_site9767],9.8
17,CAAAAAATTCAACACACACACACACCGATAAATAAA [CACACA_site8330],10.7
18,TTTCCTTATAAAAATACACACAAACTTTAATTAAAA [CACACA_site7710],9.49
19,TATTCCAAATTTACTAGTACATAATCCATCCGATAA [XGTACX_site1558],9.46
20,TTTCTTTTTAAATGCTGTACAAAGGGTGACGTTAAA [XGTACX_site4724],9.44
21,TATTACACATATTATACACACATATATTATAGATAT [CACACA_site6839],9.94
22,TATATATATATATATTGTACACATTGTGTTTAAATA [XGTACX_site5104],9.6
23,AATAGAATGTAATATACACACATATATTTCTCTTTT [CACACA_site2630],9.78

row,Sequence,gcPBM binding intensity (ln)
1,TTTTTATTGTTAATTTTAATTTTTTTTTTTTAATGC [CACACA_negctrl_site162],9.33
2,TTGTAACCTATGCACGCACACAAGAAAAAAACAAAA [CACACA_site3775],10
3,TTTTCTTTTTTTTTTGTGCACATAATATATAATTAT,9.8
4,ATATTTTTTAGTAAGACGAAATAAATAAATCTTTAT [CACACA_negctrl_site1778],9.22
5,TATATATATATAAGCACACAAACAAAAAAAATTATA [CACACA_site3897],9.98
6,TTTTTCCTATTTTTAGTGCACATATAAATAAATAAA [GTGCAC_site9821],9.26
7,ATTGAATATGTAAATGCACACCAAAAAAAAAAAAAA [CACACA_site9189],9.7
8,ATTTTTTATATTTAGTGTACATGTTTTAATTTATAA [XGTACX_site7512],9.71
9,ATAACTTTATTCAGTTTGCACTTTTATAACAAAAGA,9.47
10,CTTATATAATTCGATAGTACATATTTTTATATATAT [XGTACX_site4045],9.68
11,TTTACTCCTACAACATGTACATAAAATAAATTTTTT [XGTACX_site5010],9.58
12,ACATGTTAACTAAATGTACACACCTATGTTGATGTA [CACACA_site1821],9.72
13,TTATTTACAACTTTTTTTTTTTTATTTTATTTTATT [CACACA_negctrl_site341],9.61
14,ACATAGCAATGTTTCACACACAAGAAAAAATACAAT [CACACA_site2379],10
15,TTTGAACTCTTAAGTGGTACAAATTTGTATTTTCTC [XGTACX_site2322],9.61
16,GAAATGTGGTAATATACACACACGCATATATTTATA [CACACA_site6285],9.89
17,AATGGAATATATATTTGTACATAAATATTATAATAA [XGTACX_site8524],9.6
18,TATAAATAAAAATATACACACTGTATTATTGTAATA [CACACA_site7721],9.68
19,TCGTGGTTTTAATAAGTGCGCAATTTAAATATTTTT,9.74
20,TATTATTATTATTACACACACAATTATATTTACCCC [CACACA_site503],10
21,GTATATATATATATATATATATATTTTTATTTATTT [CACACA_negctrl_site589],9.51
22,AATATAAGTAGTACAGTGCATATAATAATTAGAAGA [GTGCAC_site9485],9.89
23,GATTAAACACAAAGAAGTACGGACATAAAAAAAAAA [XGTACX_site3686],9.73

row,Sequence,gcPBM binding intensity (ln)
1,TTGATTTATATTTAATGTACATTTTTACAGAAAATT [XGTACX_site2747],9.53
2,CCATAAAAAGGATACACACACACACGCACATATATA [CACACA_site6550],10.8
3,ATATATATATTATATGCACACGTTAAAATTTCATAT [CACACA_site4552],9.71
4,TAAAAATATTAATAAACACACAATGAGATATTGAAT [CACACA_site3153],9.83
5,AAATATAAAATTTATTGTACATTATATATAATATAT [XGTACX_site1416],9.61
6,TGATATATTTATATTACACACTTAAACGAAAAAAAA [CACACA_site3021],9.62
7,TATTATAATATTTATACACACATAATTTTGATAAAT [CACACA_site583],9.65
8,ATATTATATATATAGGTGCGAGTATTTTATAAATAT [GTGCAC_site9889],9.72
9,TAAGTATACACATACACACACACACTAATAAAAAAA [CACACA_site8035],10.5
10,TATACACCCGGACACACACACATATATATATATATA [CACACA_site5030],10.3
11,ACATATTATATAACTCGTACTCGTAAAATATGTTGT [XGTACX_site2240],9.64
12,TTCTTCTGTTTTATTACACACCATTTTGCGTATACA [CACACA_site2070],9.98
13,GTCATAAATGTACGCACACATACATAAACATATACA [CACACA_site650],9.94
14,GTTCTTTTATATATTTGTACATATTTATATATATTG [XGTACX_site4078],9.94
15,CATTCTTGTTTAAAAAGTACATAAACATATATATAT [XGTACX_site1751],9.54
16,AAAAAAAATAAAGAGAAAAAAAAAAGAAAATTATAT [GTGCAC_negctrl_site550],9.54
17,TAAATTAATATGTATCGTACAATATATAAAACGATG [XGTACX_site2818],9.63
18,AATTTTATACGATAAACATGCAAATAAATAAATAAA [TGCATGCA_site227],9.67
19,AAAGAAAAAAAAAACACACACACACCCATTCAATAT [CACACA_site38],11.4
20,ACAGCCAATACGGAAACACACAAGTTATTTTATCAT [CACACA_site5507],9.8
